# Measured values published in the supplement of paper PMC8728848.
# Some of the results follow.
# B1: rCnSL-proA (Clitocybe nebularis) (protein)
# chain: AAFFSLVVLLALLPFGIHASALPSTELTPRVNPNLPGPNDVFVGFRGTNNIVGAIYEKDGIKDTPLNNGADAEMGPGSYITDGLFTARIFASGSAGNNPGTTATVCKIYASGVQWRGAPKGYIPVAYFGNGPTAEQRRQTYLRTLGLPGTAIRFGNLNTNPGQGPTAPRQMVVPPGPLRSLLKASCFPAADTRLPQTLHYFEKRVDWNIITAADSQTWGH
# Assays:
# Assay in all cases: glycan array binding signal (z-score within array); higher = stronger binding
# Conditions in all cases: glycan notation: IUPAC condensed, linker removed
# [1] = biological target: Gal(b1-4)GlcNAc(b1-6)GalNAc
# In short: (§1)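 The Consortium for Functional Glycomics database supplied 3228 glycan arrays, of which those lacking an available protein sequence were dropped. The binding signal, a within-array Z-score, was averaged across arrays of the same protein sequence and across linkers. Negative scores can be read as non-binding.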
# [2] = biological target: Gal(b1-4)GlcNAc(b1-6)[Gal(b1-3)]GalNAc
# In short: as §1
# [3] = biological target: Gal(b1-4)GlcNAc(b1-6)[Gal(b1-4)GlcNAc(b1-3)]GalNAc
# In short: as §1
# Gal(b1-4)GlcNAc6P = biological target: Gal(b1-4)GlcNAc6P
# In short: as §1
# Gal(b1-6)Gal = biological target: Gal(b1-6)Gal
# In short: as §1
# Gal3S(b1-3)GalNAc = biological target: Gal3S(b1-3)GalNAc
# In short: as §1
# Gal3S(b1-3)GlcNAc = biological target: Gal3S(b1-3)GlcNAc
# In short: as §1
# [4] = biological target: Gal3S(b1-3)[Fuc(a1-4)]GlcNAc
# In short: as §1
# Gal3S(b1-4)Glc = biological target: Gal3S(b1-4)Glc
# In short: as §1
# Gal3S(b1-4)Glc6S = biological target: Gal3S(b1-4)Glc6S
# In short: as §1
# Gal3S(b1-4)GlcNAc = biological target: Gal3S(b1-4)GlcNAc
# In short: as §1
# [5] = biological target: Gal3S(b1-4)[Fuc(a1-3)]Glc6S
# In short: as §1
# [6] = biological target: Gal3S(b1-4)[Fuc(a1-3)]GlcNAc
# In short: as §1
# [7] = biological target: Gal3S(b1-4)[Fuc(a1-3)]GlcNAc6S
# In short: as §1
# Gal3S4S(b1-4)GlcNAc = biological target: Gal3S4S(b1-4)GlcNAc
# In short: as §1
# Gal3S6S(b1-4)GlcNAc = biological target: Gal3S6S(b1-4)GlcNAc
# In short: as §1
# Gal3S6S(b1-4)GlcNAc6S = biological target: Gal3S6S(b1-4)GlcNAc6S
# In short: as §1
# Gal4S(b1-4)GlcNAc = biological target: Gal4S(b1-4)GlcNAc
# In short: as §1
# Gal4S6S(b1-4)GlcNAc = biological target: Gal4S6S(b1-4)GlcNAc
# In short: as §1
# Gal6P(b1-4)GlcNAc = biological target: Gal6P(b1-4)GlcNAc
# In short: as §1
# Gal6S(b1-3)GlcNAc = biological target: Gal6S(b1-3)GlcNAc
# In short: as §1
# Gal6S(b1-3)GlcNAc6S = biological target: Gal6S(b1-3)GlcNAc6S
# In short: as §1
# Gal6S(b1-4)Glc = biological target: Gal6S(b1-4)Glc
# In short: as §1
binder,measurement,setting,value
B1,glycan array binding signal (z-score),[1],-0.307
same,glycan array binding signal (z-score),[2],-0.086
same,glycan array binding signal (z-score),[3],0.04
same,glycan array binding signal (z-score),Gal(b1-4)GlcNAc6P,-1.27
same,glycan array binding signal (z-score),Gal(b1-6)Gal,-0.149
same,glycan array binding signal (z-score),Gal3S(b1-3)GalNAc,-0.368
same,glycan array binding signal (z-score),Gal3S(b1-3)GlcNAc,-0.309
same,glycan array binding signal (z-score),[4],-0.266
same,glycan array binding signal (z-score),Gal3S(b1-4)Glc,-0.304
same,glycan array binding signal (z-score),Gal3S(b1-4)Glc6S,-0.416
same,glycan array binding signal (z-score),Gal3S(b1-4)GlcNAc,-0.132
same,glycan array binding signal (z-score),[5],-0.507
same,glycan array binding signal (z-score),[6],-0.076
same,glycan array binding signal (z-score),[7],-0.185
same,glycan array binding signal (z-score),Gal3S4S(b1-4)GlcNAc,-0.317
same,glycan array binding signal (z-score),Gal3S6S(b1-4)GlcNAc,-0.324
same,glycan array binding signal (z-score),Gal3S6S(b1-4)GlcNAc6S,-0.596
same,glycan array binding signal (z-score),Gal4S(b1-4)GlcNAc,-0.376
same,glycan array binding signal (z-score),Gal4S6S(b1-4)GlcNAc,-0.282
same,glycan array binding signal (z-score),Gal6P(b1-4)GlcNAc,-0.327
same,glycan array binding signal (z-score),Gal6S(b1-3)GlcNAc,-0.777
same,glycan array binding signal (z-score),Gal6S(b1-3)GlcNAc6S,-0.576
same,glycan array binding signal (z-score),Gal6S(b1-4)Glc,-0.662
